Results reported in PubChem BioAssay AID1768 (National Center for Advancing Translational Sciences (NCATS), 2009).
Among all 270,000 compounds or so, about 620 (0.23%) were called active. Inconclusive results, whose numbers are uncertain, are shown with a selection of clear calls. Calls follow the shape of the dose curve; as a rule, active = well fitted inhibition curve with a large enough effect in the polarisation, with a control signal flat (not every such curve was filed as active); inconclusive = small, poorly fitted or top-dose-only effect, or effect the other way, or a change in a side signal; inactive = no such curve, though single readings can be large or run the other way; the % refers to the polarisation. Potencies of inconclusive entries are doubtful fits and often do not repeat. A note “side channel” means that the fit belongs to a control or component signal, not to the main read-out.

The compounds below were run against Menin (Homo sapiens) (UniProt O00255) (assay: qHTS Assay for Inhibitors Targeting the Menin-MLL Interaction in MLL Related Leukemias: Competition With Texas Red Labeled MLL-derived Mutant Peptide). Settings: fluorescence polarization; FP activity change, negative = inhibition: at 61.6 µM (top of the series).
Sequence of UniProt O00255 (O00255 whole entry, looked up): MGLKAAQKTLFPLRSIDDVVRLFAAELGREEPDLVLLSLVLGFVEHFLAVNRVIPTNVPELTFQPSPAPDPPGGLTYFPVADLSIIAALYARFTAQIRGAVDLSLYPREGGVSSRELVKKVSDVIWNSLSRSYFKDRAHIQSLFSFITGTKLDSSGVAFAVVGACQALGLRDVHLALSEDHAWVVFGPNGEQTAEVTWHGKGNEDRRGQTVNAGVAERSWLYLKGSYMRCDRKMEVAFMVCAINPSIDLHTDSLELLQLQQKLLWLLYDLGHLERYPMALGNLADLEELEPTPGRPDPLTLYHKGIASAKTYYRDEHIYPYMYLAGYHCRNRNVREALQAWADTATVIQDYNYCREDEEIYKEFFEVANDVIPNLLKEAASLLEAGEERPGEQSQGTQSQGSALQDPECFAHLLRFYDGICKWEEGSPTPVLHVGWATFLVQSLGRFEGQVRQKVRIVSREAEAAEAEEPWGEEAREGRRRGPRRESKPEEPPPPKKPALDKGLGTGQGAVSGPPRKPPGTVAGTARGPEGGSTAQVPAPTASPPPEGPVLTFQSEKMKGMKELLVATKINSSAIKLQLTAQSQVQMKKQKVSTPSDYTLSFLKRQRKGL

For FP activity change, negative = inhibition in this document: % of control where 0% means no effect.
Potency is read from the fitted curve at half-maximal effect; tags tell the direction and shape of the fitted curve or compound fluorescence and quenching.

| SMILES | Potency | FP activity change, negative = inhibition |
| --- | --- | --- |
| OCCN(Cc1ccccc1)Cc1cccc(C(F)(F)F)c1 | inconclusive: 25.1 µM [fluorescent, side channel, single point] | – |
| COC(=O)c1ccccc1NC(=O)CCCN1C(=O)C(c2ccccc2)Oc2cccnc21 (stereo unspecified) | inconclusive: 35.5 µM [fluorescent, side channel, partial curve] | – |
| CCOC(=O)c1ccc(NC(=S)N2CCSC2c2ccc(Br)cc2)cc1 (stereo unspecified) | inconclusive: 39.8 µM [inhibitor, single point] | – |
| Cc1ccc(NC(=O)N/C=C/c2ccco2)cc1C | inconclusive: 39.8 µM [quencher, side channel, single point] | – |
| C/C=C/c1ccc(OCCCCNCc2ccco2)c(OC)c1 | inconclusive: 15.8 µM [inhibitor, partial curve] | – |
| O=C(CN(Cc1ccco1)C(=O)CCC(=O)Nc1ccccn1)NCc1ccccc1 | – | inactive: 13.3% |
| COc1ccc2c(COC(=O)c3cccc(S(=O)(=O)NCC(C)C)c3)cc(=O)oc2c1 | – | inactive: 27.4% |
| Cc1ccc(-c2csc3nc(SCC(=O)Nc4ccc(Cl)c(C(=O)O)c4)[nH]c(=O)c23)cc1 | – | inactive: 47.4% |
| COc1ccc(Cl)cc1-n1c(=S)sc2c(=O)[nH]c(SCC(=O)NCCC(C)C)nc21 | inconclusive: 28.2 µM [quencher, single point] | – |
| Cc1ccc(NC(=O)c2ccccc2)cc1OC(=O)c1ccccc1 | inconclusive: 31.6 µM [quencher, side channel, single point] | – |
| C[n+]1c2n(c3ccccc31)N=C(c1ccc(-c3ccccc3)cc1)CS2 | inconclusive: 17.8 µM [inhibitor, single point] | – |
| COc1ccc(Cl)cc1NC(=O)CSc1nc(-c2ccccc2)cc(=O)[nH]1 | inconclusive: 31.6 µM [quencher, side channel, partial curve] | – |
| COc1ccc2c(c1)CCC1C2CC[C@@]2(C)C1CC[C@@H]2NCCCCCCN1C(=O)C=CC1=O (stereo partly specified) | – | inactive: -9.13% |
| CCC(C)(C)n1nnnc1C(c1cc2ccc(C)cc2[nH]c1=O)N(Cc1cccnc1)Cc1ccco1 (stereo unspecified) | inconclusive: 39.8 µM [inhibitor, single point] | – |
| Cc1cc2ncn(CC3CC3(Cl)Cl)c2cc1C (stereo unspecified) | inconclusive: 20 µM [fluorescent, side channel, single point] | – |
| O=C(O)CCCCCNc1nc(=S)[nH]c2ccccc12 | inconclusive: 22.4 µM [inhibitor, partial curve, poor fit] | – |
| CCOC(=O)c1sc(=S)n(-c2ccc3c(c2)OCO3)c1N | inconclusive: 20 µM [quencher, side channel, partial curve] | – |
| CC(C)[C@@H]1NC(=O)[C@H](CCCCN)NC(=O)[C@@H](Cc2c[nH]c3ccccc23)NC(=O)[C@H](Cc2ccc(O)cc2)NC(=O)[C@@H](NC(=O)[C@H](N)Cc2ccccc2)CSSC[C@@H](C(=O)N[C@@H](Cc2c[nH]c3ccccc23)C(N)=O)NC1=O | – | inactive: 2.58% |

| SMILES | Potency | FP activity change, negative = inhibition |
| --- | --- | --- |
| O=C(Nc1ccc(Cl)cc1)c1cc(S(=O)(=O)N2CCOCC2)cs1 | inconclusive: 12.6 µM [quencher, side channel, partial curve] | – |
| O=C(c1nc2ccccn2c1CN1CCN(c2ccccc2O)CC1)N1CCCC1 | inconclusive: 39.8 µM [inhibitor, single point] | – |
| COc1cc(OC)c(OC)cc1CCC(C)NCCC(c1ccccc1)c1ccccc1 (stereo unspecified) | inconclusive: 3.16 µM [fluorescent, side channel, partial curve] | – |
| CC(O)CNCCCCOc1ccc(OCc2ccccc2)cc1 (stereo unspecified) | inconclusive: 35.5 µM [fluorescent, side channel, single point] | – |
| COc1ccccc1N1CCN(C(=O)CCc2c[nH]c3ccccc23)CC1 | inconclusive: 14.1 µM [fluorescent, partial curve] | – |
| Cc1cc(NC(=O)COC(=O)C2CC(=O)N(c3ccc(Cl)cc3)C2)no1 (stereo unspecified) | inconclusive: 25.1 µM [quencher, side channel, partial curve] | – |
| COC(=O)c1ccc2c(=O)n(Cc3ccco3)c(SCC(=O)Nc3cc(C)on3)nc2c1 | inconclusive: 39.8 µM [fluorescent, side channel, single point] | – |
| O=C(CSc1ccccc1C(=O)NCc1ccccc1)NC1CCCCCCC1 | inconclusive: 4.47 µM [fluorescent, side channel, partial curve] | – |
| COc1ccc(N2CCN(c3nc4ccc(C)cn4c(=O)c3C=O)CC2)cc1 | inconclusive: 28.2 µM [inhibitor, partial curve] | – |
| O=C1N(Cc2ccccc2)CCCC12CCCN(Cc1ccccc1)C2=O | inconclusive: 35.5 µM [fluorescent, side channel, single point] | – |
| O=C1OCCN1C(=O)[C@H]1[C@H](c2ccc(Cl)cc2)C(c2cccc(Cl)c2)=NN1c1ccc(Br)cc1 | inconclusive: 14.1 µM [inhibitor, partial curve] | – |
| Cc1ccccc1-n1c(N)c(C(=O)Nc2ccc(F)cc2)sc1=S | inconclusive: 39.8 µM [inhibitor, single point] | – |
| c1csc(CNCCCN2CCOCC2)c1 | – | inactive: -1.75% |
| Nc1n[nH]c(N)c1N=Nc1ccc2c(c1)OCO2 | inconclusive: 31.6 µM [quencher, side channel, single point] | – |
| Cc1[nH]c2ccc(Cl)cc2c(=O)c1CN1CCCC1 | inconclusive: 11.2 µM [inhibitor, partial curve, poor fit] | – |
| COC(=O)c1ccc(C(NC(=O)OCc2ccccc2)/C(=C/[C@@H](C)C(=O)NCc2cc(C)n(C)n2)c2cccnc2)cc1 (stereo partly specified) | – | inactive: 14.9% |
| CCn1c(=S)sc2c(=O)n(CC(=O)NCCCc3ccccc3)c(C)nc21 | inconclusive: 35.5 µM [fluorescent, side channel, single point] | – |
| C=CCN(CC=C)C(=O)CN1C(=O)NC(C)(c2ccc3cc(OC)ccc3c2)C1=O (stereo unspecified) | inconclusive: 22.4 µM [fluorescent, side channel, partial curve, poor fit] | – |
